Source: the supplement of paper PMC7125110
± gives the standard error. Variants at the floor of the assay are shown more often than the library holds them.

B1: glmS ribozyme (parent)
chain: AUAAAAGCGCCAGAACUACAGAAAUGUAGUUGACGAGGAGGAGGUUUAUCGAAUUUUCGGCGGAUGCCUCCAAA

Variants of: B1
Assay: self-cleavage kobs at 2500 uM GlcN6P; higher = faster cleavage; RNA array
Conditions: with glucosamine-6-phosphate
Summary of the method: (§1)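 E. coli RNA polymerase transcribed barcoded ribozyme variants in situ on sequenced MiSeq chips, which were tracked via a hybridised Cy3 probe at 37 °C. Tiles were imaged over ~14 h after glucosamine-6-phosphate (40 μM to 10 mM) in HEPES/KCl/Mg(OAc)2 buffer was flowed in. Normalised per-tile medians were fit to one- or two-exponential decays for kobs, and kcat and KM came from weighted Michaelis–Menten fits.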

Q: A33C A36U G37C was tested. Which “self-cleavage kobs at 2500 uM GlcN6P” value did it give?
A: < 1e-05 s⁻¹

Q: A33C A36U U49A U56C C61U was tested. Which “self-cleavage kobs at 2500 uM GlcN6P” value did it give?
A: < 1e-05 s⁻¹

Q: How did the “self-cleavage kobs at 2500 uM GlcN6P” value turn out when A33C A42C A52C C68G C71A was run?
A: < 1e-05 s⁻¹

Q: With A33C G35U A42G A48G as the variant, how does the “self-cleavage kobs at 2500 uM GlcN6P” value read?
A: < 1e-05 s⁻¹

Q: A33C G38A A42U A53U was tested. Which “self-cleavage kobs at 2500 uM GlcN6P” value did it give?
A: < 1e-05 s⁻¹

Q: With A33C G38A G62U as the variant, how does the “self-cleavage kobs at 2500 uM GlcN6P” value read?
A: < 1e-05 s⁻¹

Q: A33C G40A A48C G51C G60C was tested. Which “self-cleavage kobs at 2500 uM GlcN6P” value did it give?
A: < 1e-05 s⁻¹

Q: With A33C G41C C67G as the variant, how does the “self-cleavage kobs at 2500 uM GlcN6P” value read?
A: < 1e-05 s⁻¹

Q: How did the “self-cleavage kobs at 2500 uM GlcN6P” value turn out when A33C U46A C70U was run?
A: < 1e-05 s⁻¹

Q: For A33C U49C C70U, which “self-cleavage kobs at 2500 uM GlcN6P” value is on record?
A: < 1e-05 s⁻¹

Q: How did the “self-cleavage kobs at 2500 uM GlcN6P” value turn out when A33C U56G was run?
A: 5.24e-05 ± 2.2e-05 s⁻¹

Q: For A33G A36U G40C U54G C68U, which “self-cleavage kobs at 2500 uM GlcN6P” value is on record?
A: < 1e-05 s⁻¹

Q: How did the “self-cleavage kobs at 2500 uM GlcN6P” value turn out when A33G A39C U45A was run?
A: < 1e-05 s⁻¹

Q: Which “self-cleavage kobs at 2500 uM GlcN6P” value does the source give for A33G A42U C70U here?
A: < 1e-05 s⁻¹

Q: Which “self-cleavage kobs at 2500 uM GlcN6P” value does the source give for A33G G35A A36C G41A C61G C68G here?
A: < 1e-05 s⁻¹

Q: For A33G G43A U49G, which “self-cleavage kobs at 2500 uM GlcN6P” value is on record?
A: < 1e-05 s⁻¹

Q: Which “self-cleavage kobs at 2500 uM GlcN6P” value does the source give for A33U A39C G62C here?
A: < 1e-05 s⁻¹

Q: With A33U C67A U69A as the variant, how does the “self-cleavage kobs at 2500 uM GlcN6P” value read?
A: < 1e-05 s⁻¹

Q: How did the “self-cleavage kobs at 2500 uM GlcN6P” value turn out when A33U G35A A39C C50U was run?
A: < 1e-05 s⁻¹

Q: Which “self-cleavage kobs at 2500 uM GlcN6P” value does the source give for A33U G35C C58G here?
A: < 1e-05 s⁻¹

Q: For A33U G41C G43C U55G, which “self-cleavage kobs at 2500 uM GlcN6P” value is on record?
A: < 1e-05 s⁻¹

Q: How did the “self-cleavage kobs at 2500 uM GlcN6P” value turn out when C34A C68G was run?
A: < 1e-05 s⁻¹

Q: With C34A G43A C50G U54C as the variant, how does the “self-cleavage kobs at 2500 uM GlcN6P” value read?
A: < 1e-05 s⁻¹

Q: Which “self-cleavage kobs at 2500 uM GlcN6P” value does the source give for C34A G43A U54G here?
A: < 1e-05 s⁻¹

Q: With C34A U54G as the variant, how does the “self-cleavage kobs at 2500 uM GlcN6P” value read?
A: < 1e-05 s⁻¹

Q: Which “self-cleavage kobs at 2500 uM GlcN6P” value does the source give for C34G A48C U56G C58A G59U here?
A: < 1e-05 s⁻¹

Q: For C34G U54C C70G, which “self-cleavage kobs at 2500 uM GlcN6P” value is on record?
A: < 1e-05 s⁻¹

Q: C34U A39U G43U was tested. Which “self-cleavage kobs at 2500 uM GlcN6P” value did it give?
A: < 1e-05 s⁻¹

Q: C34U A52U U65G was tested. Which “self-cleavage kobs at 2500 uM GlcN6P” value did it give?
A: < 1e-05 s⁻¹

Q: With C34U A53C as the variant, how does the “self-cleavage kobs at 2500 uM GlcN6P” value read?
A: < 1e-05 s⁻¹

Q: C34U G40A G41C A48C A52G was tested. Which “self-cleavage kobs at 2500 uM GlcN6P” value did it give?
A: < 1e-05 s⁻¹

Q: For C34U U47G G51U, which “self-cleavage kobs at 2500 uM GlcN6P” value is on record?
A: < 1e-05 s⁻¹

Q: How did the “self-cleavage kobs at 2500 uM GlcN6P” value turn out when C34U U54G G63U was run?
A: < 1e-05 s⁻¹

Q: For G35A C50G U54G A64C, which “self-cleavage kobs at 2500 uM GlcN6P” value is on record?
A: 7.23e-05 ± 2.7e-05 s⁻¹

Q: How did the “self-cleavage kobs at 2500 uM GlcN6P” value turn out when G35A G43U G60U G62A was run?
A: < 1e-05 s⁻¹

Q: With G35A G60U C61A as the variant, how does the “self-cleavage kobs at 2500 uM GlcN6P” value read?
A: < 1e-05 s⁻¹

Q: Which “self-cleavage kobs at 2500 uM GlcN6P” value does the source give for G35A G60U C68U here?
A: < 1e-05 s⁻¹

Q: With G35A U54A G60U as the variant, how does the “self-cleavage kobs at 2500 uM GlcN6P” value read?
A: < 1e-05 s⁻¹

Q: Which “self-cleavage kobs at 2500 uM GlcN6P” value does the source give for G35C A42G U56C G60U C70G here?
A: < 1e-05 s⁻¹

Q: How did the “self-cleavage kobs at 2500 uM GlcN6P” value turn out when G35C A42U A48G was run?
A: < 1e-05 s⁻¹

Q: For G35C A53G U69G C71A, which “self-cleavage kobs at 2500 uM GlcN6P” value is on record?
A: < 1e-05 s⁻¹

Q: How did the “self-cleavage kobs at 2500 uM GlcN6P” value turn out when G35C A53U was run?
A: < 1e-05 s⁻¹

Q: Which “self-cleavage kobs at 2500 uM GlcN6P” value does the source give for G35C G37C C68G here?
A: < 1e-05 s⁻¹

Q: With G35C U47C G60U C70A as the variant, how does the “self-cleavage kobs at 2500 uM GlcN6P” value read?
A: < 1e-05 s⁻¹

Q: Which “self-cleavage kobs at 2500 uM GlcN6P” value does the source give for G35U A36G U45C U65G here?
A: < 1e-05 s⁻¹

Q: G35U A36G U54C was tested. Which “self-cleavage kobs at 2500 uM GlcN6P” value did it give?
A: < 1e-05 s⁻¹

Q: G35U C50U A64C C68G was tested. Which “self-cleavage kobs at 2500 uM GlcN6P” value did it give?
A: < 1e-05 s⁻¹

Q: Which “self-cleavage kobs at 2500 uM GlcN6P” value does the source give for G35U G51U A53U here?
A: < 1e-05 s⁻¹

Q: For G35U U56A C71U, which “self-cleavage kobs at 2500 uM GlcN6P” value is on record?
A: < 1e-05 s⁻¹

Q: A36C A42U U46A was tested. Which “self-cleavage kobs at 2500 uM GlcN6P” value did it give?
A: < 1e-05 s⁻¹

Q: Which “self-cleavage kobs at 2500 uM GlcN6P” value does the source give for A36C C50U U56A here?
A: < 1e-05 s⁻¹

Q: With A36C G40C G63U as the variant, how does the “self-cleavage kobs at 2500 uM GlcN6P” value read?
A: < 1e-05 s⁻¹

Q: For A36C G60A A64U, which “self-cleavage kobs at 2500 uM GlcN6P” value is on record?
A: < 1e-05 s⁻¹

Q: With A36C U47A C61U as the variant, how does the “self-cleavage kobs at 2500 uM GlcN6P” value read?
A: < 1e-05 s⁻¹

Q: For A36G G37A G62U G63U A64U U65G C67A, which “self-cleavage kobs at 2500 uM GlcN6P” value is on record?
A: < 1e-05 s⁻¹

Q: A36G G41U G60A was tested. Which “self-cleavage kobs at 2500 uM GlcN6P” value did it give?
A: < 1e-05 s⁻¹

Q: How did the “self-cleavage kobs at 2500 uM GlcN6P” value turn out when A36U A42U U45G U65A was run?
A: < 1e-05 s⁻¹

Q: How did the “self-cleavage kobs at 2500 uM GlcN6P” value turn out when A36U G51U G63U was run?
A: < 1e-05 s⁻¹

Q: Which “self-cleavage kobs at 2500 uM GlcN6P” value does the source give for A36U U55G C67A here?
A: < 1e-05 s⁻¹

Q: How did the “self-cleavage kobs at 2500 uM GlcN6P” value turn out when G37A U47G A64U C71U was run?
A: < 1e-05 s⁻¹

Q: G37A U55C U65C C67G C70G was tested. Which “self-cleavage kobs at 2500 uM GlcN6P” value did it give?
A: < 1e-05 s⁻¹

Q: For G37A U65A, which “self-cleavage kobs at 2500 uM GlcN6P” value is on record?
A: 7.66e-05 ± 1.9e-05 s⁻¹

Q: Which “self-cleavage kobs at 2500 uM GlcN6P” value does the source give for G37A U65G C67A here?
A: 4.8e-05 ± 1.1e-05 s⁻¹

Q: Which “self-cleavage kobs at 2500 uM GlcN6P” value does the source give for G37C A52G U56G here?
A: < 1e-05 s⁻¹

Q: How did the “self-cleavage kobs at 2500 uM GlcN6P” value turn out when G37C A53C G60U was run?
A: < 1e-05 s⁻¹

Q: How did the “self-cleavage kobs at 2500 uM GlcN6P” value turn out when G37C C50A was run?
A: < 1e-05 s⁻¹

Q: How did the “self-cleavage kobs at 2500 uM GlcN6P” value turn out when G37C C61U C71G was run?
A: < 1e-05 s⁻¹

Q: For G37C G40U G43C C68A C70A, which “self-cleavage kobs at 2500 uM GlcN6P” value is on record?
A: < 1e-05 s⁻¹

Q: How did the “self-cleavage kobs at 2500 uM GlcN6P” value turn out when G37C G44A G62U was run?
A: < 1e-05 s⁻¹

Q: For G37U G40A G63A, which “self-cleavage kobs at 2500 uM GlcN6P” value is on record?
A: < 1e-05 s⁻¹

Q: How did the “self-cleavage kobs at 2500 uM GlcN6P” value turn out when G38A C50A A64C was run?
A: < 1e-05 s⁻¹

Q: With G38A G40A A53U as the variant, how does the “self-cleavage kobs at 2500 uM GlcN6P” value read?
A: < 1e-05 s⁻¹

Q: Which “self-cleavage kobs at 2500 uM GlcN6P” value does the source give for G38C A52U U56C here?
A: < 1e-05 s⁻¹

Q: Which “self-cleavage kobs at 2500 uM GlcN6P” value does the source give for G38C U47C U49A here?
A: < 1e-05 s⁻¹

Q: With G38C U49C A52G as the variant, how does the “self-cleavage kobs at 2500 uM GlcN6P” value read?
A: < 1e-05 s⁻¹

Q: G38C U57A was tested. Which “self-cleavage kobs at 2500 uM GlcN6P” value did it give?
A: < 1e-05 s⁻¹

Q: G38C U57G G59A A64G was tested. Which “self-cleavage kobs at 2500 uM GlcN6P” value did it give?
A: < 1e-05 s⁻¹

Q: How did the “self-cleavage kobs at 2500 uM GlcN6P” value turn out when G38U A39G C71G was run?
A: < 1e-05 s⁻¹

Q: How did the “self-cleavage kobs at 2500 uM GlcN6P” value turn out when G38U C67G C68U was run?
A: 0.000248 ± 8.4e-05 s⁻¹

Q: Which “self-cleavage kobs at 2500 uM GlcN6P” value does the source give for G38U G40U A48U C68G here?
A: < 1e-05 s⁻¹

Variants of: B1
Assay: self-cleavage kobs at 10000 uM GlcN6P; higher = faster cleavage; RNA array
Conditions: with glucosamine-6-phosphate
Summary of the method: as §1

Q: For A33C U56G, which “self-cleavage kobs at 10000 uM GlcN6P” value is on record?
A: 5.35e-05 ± 1e-05 s⁻¹

Q: With C34A U54G as the variant, how does the “self-cleavage kobs at 10000 uM GlcN6P” value read?
A: < 1e-05 s⁻¹

Q: C34U A53C was tested. Which “self-cleavage kobs at 10000 uM GlcN6P” value did it give?
A: < 1e-05 s⁻¹

Q: With G35C A53U as the variant, how does the “self-cleavage kobs at 10000 uM GlcN6P” value read?
A: < 1e-05 s⁻¹

Q: Which “self-cleavage kobs at 10000 uM GlcN6P” value does the source give for G35U A36G U45C U65G here?
A: < 1e-05 s⁻¹

Q: G37A U65A was tested. Which “self-cleavage kobs at 10000 uM GlcN6P” value did it give?
A: 0.000124 ± 1.4e-05 s⁻¹

Q: Which “self-cleavage kobs at 10000 uM GlcN6P” value does the source give for G37C A53C G60U here?
A: < 1e-05 s⁻¹

Q: With G37C C50A as the variant, how does the “self-cleavage kobs at 10000 uM GlcN6P” value read?
A: < 1e-05 s⁻¹

Q: G37U G40A G63A was tested. Which “self-cleavage kobs at 10000 uM GlcN6P” value did it give?
A: < 1e-05 s⁻¹

Q: With G38C U49C A52G as the variant, how does the “self-cleavage kobs at 10000 uM GlcN6P” value read?
A: < 1e-05 s⁻¹
